No constants are given. Whether binding was seen depends on the method and setting. Some entries that bind do so weakly or less than the wild type. Each block holds one molecule with its values, some of them ahead of it.
Key:
[1] = biological target: IL-11FL/IL-11RαEC/gp130_(D1-D3) trimer (human) (UniProt P20809+Q14626+P40189); test: crystal structure; IL-11FL/IL-11RαEC/gp130_(D1-D3) complex, equimolar mix purified by gel filtration, crystals at 20 °C; anisotropic data to 3.8 Å, three hexamers in the asymmetric unit; both purified
[2] = biological target: T1, IL-11Δ10/IL-11Rα_(D1-D3)/gp130_(D1-D3) trimer (human) (UniProt P20809+Q14626+P40189); test: cryo-EM structure; IL-11Δ10/IL-11Rα_(D1-D3)/gp130_(D1-D3) complex, equimolar mix, size exclusion purified in TBS pH 8.0, 0.5 mg/mL on grids; C2 symmetry, 3.5 Å; both purified
[3] = biological target: T1, IL-11Δ10/IL-11Rα_(D1-D3)/gp130_(D1-D3) trimer (human); test: AUC; sedimentation velocity, 50,000 rpm, 20 °C, c(s) model with floating frictional ratio (SEDFIT); both purified
[4] = biological target: T1, IL-11Δ10/IL-11Rα_(D1-D3)/gp130_(D1-D3) trimer (human); test: AUC; sedimentation equilibrium at three speeds, single-species analysis (SEDPHAT), relative molecular mass M*; complexes size exclusion purified before; both purified
[5] = biological target: T1, IL-11Δ10/IL-11Rα_(D1-D3)/gp130_(D1-D3) trimer (human); test: SAXS; in-line size exclusion (Superdex 200 5/150 Increase), TBS pH 8.5, 0.2% sodium azide; fit of models with CRYSOL; both purified
[6] = biological target: T1, IL-11Δ10/IL-11Rα_(D1-D3)/gp130_(D1-D3) trimer (human); test: SEC-MALS; Zenix-C SEC-300 column, 20 mM Tris, 150 mM sodium chloride pH 8.5, ~2 mg/mL applied; both purified
[7] = biological target: T2, IL-11Rα_(D1-D3) (human) (UniProt Q14626); test: cryo-EM structure; IL-11Δ10/IL-11Rα_(D1-D3)/gp130EC complex, 1.5 mg/mL, with 1–2 mM n-dodecyl β-D-maltoside, not size exclusion purified; C2 symmetry, 3.8 Å; both purified
T2 sequence (chain, N-linked glycans (N105, N172 seen in the structures)): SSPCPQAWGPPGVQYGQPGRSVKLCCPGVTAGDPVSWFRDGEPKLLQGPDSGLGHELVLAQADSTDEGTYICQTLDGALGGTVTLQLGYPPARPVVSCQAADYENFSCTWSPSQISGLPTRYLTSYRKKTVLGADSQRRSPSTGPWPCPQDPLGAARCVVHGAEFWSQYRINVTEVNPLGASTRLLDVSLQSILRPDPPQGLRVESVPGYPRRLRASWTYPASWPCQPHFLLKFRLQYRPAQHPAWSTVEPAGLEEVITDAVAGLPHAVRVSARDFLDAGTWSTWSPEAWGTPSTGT

[8] = biological target: T2, IL-11Rα_(D1-D3) (human); test: cryo-EM structure; IL-11Δ10/IL-11Rα_(D1-D3)/gp130_(D1-D3) complex, equimolar mix, size exclusion purified in TBS pH 8.0, 0.5 mg/mL on grids; C2 symmetry, 3.5 Å; both purified
[9] = biological target: IL-11_(Δ10/W147A)/IL-11Rα_(D1-D3)/gp130_(D1-D3) trimer (human) (UniProt P20809+Q14626+P40189); test: AUC; sedimentation velocity, 50,000 rpm, 20 °C, c(s) model with floating frictional ratio (SEDFIT); both purified

Molecule: IL-11FL/IL-11RαEC/gp130_(D1-D3) trimer (from UniProt P20809 22-199; Q14626 24-370; P40189 22-325) (complex)
binding [1]: binds

B2: IL-11Δ10 (ligand, human)
chain: SPDPRAELDSTVLLTRSLLADTRQLAAQLRDKFPADGDHNLDSLPTLAMSAGALGALQLPGVLTRLRADLLSYLRHVQWLRRAGGSSLKTLEPELGTLQARLDRLLRRLQLLMSRLALPQPPPDPPAPPLAPPSSAWGGIRAAHAILGGLHLTLDWAVRGLLLLKTRL
notes: numbers count on: the mature protein; also called N-terminally truncated form of IL-11; WT IL-11Δ10; not shown: His6, N-terminal, cleaved
binding [8]: binds
binding [7]: binds

B3: IL-11_(Δ10/W147A)/IL-11Rα_(D1-D3)/gp130_(D1-D3) trimer (complex, human)
chain 1: SPDPRAELDSTVLLTRSLLADTRQLAAQLRDKFPADGDHNLDSLPTLAMSAGALGALQLPGVLTRLRADLLSYLRHVQWLRRAGGSSLKTLEPELGTLQARLDRLLRRLQLLMSRLALPQPPPDPPAPPLAPPSSAAGGIRAAHAILGGLHLTLDWAVRGLLLLKTRL
chain 2: SSPCPQAWGPPGVQYGQPGRSVKLCCPGVTAGDPVSWFRDGEPKLLQGPDSGLGHELVLAQADSTDEGTYICQTLDGALGGTVTLQLGYPPARPVVSCQAADYENFSCTWSPSQISGLPTRYLTSYRKKTVLGADSQRRSPSTGPWPCPQDPLGAARCVVHGAEFWSQYRINVTEVNPLGASTRLLDVSLQSILRPDPPQGLRVESVPGYPRRLRASWTYPASWPCQPHFLLKFRLQYRPAQHPAWSTVEPAGLEEVITDAVAGLPHAVRVSARDFLDAGTWSTWSPEAWGTPSTGT
chain 3: GELLDPCGYISPESPVVQLHSNFTAVCVLKEKCMDYFHVNANYIVWKTNHFTIPKEQYTIINRTASSVTFTDIASLNIQLTCNILTFGQLEQNVYGITIISGLPPEKPKNLSCIVNEGKKMRCEWDGGRETHLETNFTLKSEWATHKFADCKAKRDTPTSCTVDYSTVYFVNIEVWVEAENALGKVTSDHINFDPVYKVKPNPPHNLSVINSEELSSILKLTWTNPSIKSVIILKYNIQYRTKDASTWSQIPPEDTASTRSSFTVQDLKPFTEYVFRIRCMKEDGKGYWSDWSEEASGITYEDR
binding [9]: binds weakly

The next lines start with the values.

binding [2]: binds
binding [3]: binds
binding [4]: binds
binding [5]: binds
binding [6]: binds
Molecule: IL-11Δ10/IL-11Rα_(D1-D3)/gp130_(D1-D3) trimer (from UniProt P20809 32-199; Q14626 23-319; P40189 22-325) (complex)

binding [7]: binds
B1: gp130EC (receptor, human, UniProt P40189 23-619, looked up)
chain: ELLDPCGYISPESPVVQLHSNFTAVCVLKEKCMDYFHVNANYIVWKTNHFTIPKEQYTIINRTASSVTFTDIASLNIQLTCNILTFGQLEQNVYGITIISGLPPEKPKNLSCIVNEGKKMRCEWDGGRETHLETNFTLKSEWATHKFADCKAKRDTPTSCTVDYSTVYFVNIEVWVEAENALGKVTSDHINFDPVYKVKPNPPHNLSVINSEELSSILKLTWTNPSIKSVIILKYNIQYRTKDASTWSQIPPEDTASTRSSFTVQDLKPFTEYVFRIRCMKEDGKGYWSDWSEEASGITYEDRPSKAPSFWYKIDPSHTQGYRTVQLVWKTLPPFEANGKILDYEVTLTRWKSHLQNYTVNATKLTVNLTNDRYLATLTVRNLVGKSDAAVLTIPACDFQATHPVMDLKAFPKDNMLWVEWTTPRESVKKYILEWCVLSDKAPCITDWQQEDGTVHRTYLRGNLAESKCYLITVTPVYADGPGSPESIKAYLKQAPPSKGPTVRTKKVGKNEAVLEWDQLPVDVQNGFIRNYTIFYRTIIGNETAVNVDSSHTEYTLSSLTSDTLYMVRMAAYTDEGGKDGPEFTFTTPKFAQGEIE
modifications: N-linked glycans (N21, N61, N135 seen in the structures)
notes: Secreted with a honeybee-melittin signal peptide; D5-D6 are not in the deposited model 8DPT; also called complete extracellular domains of gp130; D1-D6 domains of gp130; not shown: His8, N-terminal, cleaved
